Measurements reported in PMC7819943, “Rice protein-binding microarrays: a tool to detect cis-acting elements near promoter regions in rice”.
The list shows a part of the results.

Molecular target: T1, OsWOX13 (Oryza sativa, UniProt Q5QMM3 1-267)
T1 sequence: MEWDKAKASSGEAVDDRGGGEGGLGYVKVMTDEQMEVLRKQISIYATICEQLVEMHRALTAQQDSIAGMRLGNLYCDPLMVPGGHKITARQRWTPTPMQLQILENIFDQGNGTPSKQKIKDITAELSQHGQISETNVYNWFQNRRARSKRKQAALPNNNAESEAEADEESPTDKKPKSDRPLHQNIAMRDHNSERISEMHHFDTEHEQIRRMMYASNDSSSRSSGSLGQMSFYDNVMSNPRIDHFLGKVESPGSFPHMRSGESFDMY
Assay: protein-binding microarray (RPBM); PBS, 2% BSA, 51.3 ng/ul salmon testes DNA, 50 uM zinc acetate, 200 nM TF, 25 C, 1 h; high values mean tight binding
Conditions: protein: recombinant; tags: N-terminal polyhistidine and DsRed monomer fusion (pET32a); label: CyDye5-dUTP incorporated in the synthesized complementary strand; 3' TTTTT single-stranded linker to array surface; dsDNA, one strand shown
Outline: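 An Axon 4000B scanner gave the binding signal as per-feature fluorescence intensity in arbitrary units. This followed washing of a custom Agilent array that had been incubated for 1 h at 25 °C with 200 nM protein in PBS, 2% BSA, salmon testes DNA and 50 µM zinc acetate. The proteins were transcription factors fused at the N-terminus to polyhistidine and DsRed, expressed in E. coli BL21-CodonPlus and purified on Ni–NTA.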

Sequence | binding signal
AGATGTAATTGACGAAATCTCCTAGGTCTCTTGTGCAAATCGGAGTCACCTAGTGCAG | 24600 fluorescence intensity (a.u.)
AGTGATTATTTATTGGAGTACGATTGAGACCCTTGGTACGCGGAGTCACCTAGTGCAG | 33400 fluorescence intensity (a.u.)
ATACTTAAATTTAATGCTACTTATCACATGATGTCTTGGACGGAGTCACCTAGTGCAG | 8270 fluorescence intensity (a.u.)
ACTAATTTACCCTCTGCCATTTTGACGCGCTCTATCGTGCCGGAGTCACCTAGTGCAG | 21300 fluorescence intensity (a.u.)
CATCAGCCATGATTGAGATGGAATATGACTCCACAGTATTCGGAGTCACCTAGTGCAG | 15200 fluorescence intensity (a.u.)
TTGATATATATTATCATCTGATGTGATTTCTTGATATCCTCGGAGTCACCTAGTGCAG | 8250 ± 601 fluorescence intensity (a.u.)
CCCAACTAATTAATCAAACCATGCATACACAATCAAAGATCGGAGTCACCTAGTGCAG | 11800 fluorescence intensity (a.u.)
TGGGGATGGCTAATTTACCAATAATGCATGTAGAGAGGATCGGAGTCACCTAGTGCAG | 5880 fluorescence intensity (a.u.)
AACCAATTTATATTGTCAGAAGAAAATGCATTATATAGGTCGGAGTCACCTAGTGCAG | 6730 fluorescence intensity (a.u.)
AATAGTGTTAAATCCATTTAATTATGTTATTGCATCTTAGCGGAGTCACCTAGTGCAG | 3740 fluorescence intensity (a.u.)
ATGACAATCACCCCAACTATGAATAGAGTGGCATATCCTGCGGAGTCACCTAGTGCAG | 5360 fluorescence intensity (a.u.)
AAATAATTATCCGTAAATAAGAGTATTGTGTCTTCTAGAACGGAGTCACCTAGTGCAG | 14800 fluorescence intensity (a.u.)
CTTTAATAATTAAAGTAAACCCAGTCAACTCACCCATTTTCGGAGTCACCTAGTGCAG | 7880 fluorescence intensity (a.u.)
ATCAGAAAAGTTTCTTCGCTGATTGATCGCCAGAAATCGCCGGAGTCACCTAGTGCAG | 17500 fluorescence intensity (a.u.)
TCCGTGAATTAACTGGCACGCGTGTATATTAGTTCATGTGCGGAGTCACCTAGTGCAG | 13900 fluorescence intensity (a.u.)
CACCAATTTAACACGATTCCAAACCACGGACTCCATCTGGCGGAGTCACCTAGTGCAG | 3380 fluorescence intensity (a.u.)
AACTTGTCATAATTTGAAATTCAAATTCAAATTATTGAAACGGAGTCACCTAGTGCAG | 7400 fluorescence intensity (a.u.)
TCCTAAACTAATTTTACTCATTCGACGGTACTAGTACTCGCGGAGTCACCTAGTGCAG | 13100 fluorescence intensity (a.u.)
ATCACAATTATTGAAGTCTATTTGTAAATCTCCAACCATACGGAGTCACCTAGTGCAG | 10100 fluorescence intensity (a.u.)
CGGCTGAGATTGGAGCCAATCATCTTATCATAAGACCCTCCGGAGTCACCTAGTGCAG | 38800 fluorescence intensity (a.u.)
ACTTAATTAATTGTAGTTGAGTTATCATAAGAACCAATTACGGAGTCACCTAGTGCAG | 11300 fluorescence intensity (a.u.)

Sequence | binding signal
CTGATGGACAGGGAGACGATAAGGAAAGGGGTGACTTGCACGGAGTCACCTAGTGCAG | 4860 fluorescence intensity (a.u.)
CGCAGATCAATCACATGTCAACAATAACAAATCCATCAATCGGAGTCACCTAGTGCAG | 13800 fluorescence intensity (a.u.)
GTATAGATTTAATTACAACGAACACAACGGTGTAATCAGACGGAGTCACCTAGTGCAG | 16000 fluorescence intensity (a.u.)
TTTGATTAGTTTGTCTGAGAACTCCGCCCTGTCCATGATGCGGAGTCACCTAGTGCAG | 41600 fluorescence intensity (a.u.)
AGCTTGTCACCTGATTGAGAAGAAAGGACTTGATTGCTTTCGGAGTCACCTAGTGCAG | 17100 fluorescence intensity (a.u.)
CACCAATTACCATTCTTAACTACTGTTATTTTAGGGAGAGCGGAGTCACCTAGTGCAG | 22300 fluorescence intensity (a.u.)
AAGTAATTATTAATTCTTTTCCTATCCTTTGATGTATTGTCGGAGTCACCTAGTGCAG | 19400 fluorescence intensity (a.u.)
TTCCCAATTCTAAATTGATCAATAGTCAATCATACAATGTCGGAGTCACCTAGTGCAG | 21600 fluorescence intensity (a.u.)
ATGAATTGGATTAGCACTACTCCAGAAAGTGATTATGGTTCGGAGTCACCTAGTGCAG | 7850 fluorescence intensity (a.u.)
TCGTTAATTTTCTTGCGAGAGGGAGGATGGCACGTGGGTTCGGAGTCACCTAGTGCAG | 16000 fluorescence intensity (a.u.)
ATTAACTTTTAAACATACATTTAATTAATTTTATTATTCACGGAGTCACCTAGTGCAG | 8370 fluorescence intensity (a.u.)
ATAATATTGTAAATGATGCGTAATTGCTAGTGAGTGAAGACGGAGTCACCTAGTGCAG | 12900 fluorescence intensity (a.u.)
CATGATATAACTGTAACACATCAAGTTGTCTGACCATATCCGGAGTCACCTAGTGCAG | 7650 fluorescence intensity (a.u.)
ACTATTGATTATAATTCTTGAAGCAATCTCATATTTGTAACGGAGTCACCTAGTGCAG | 21100 fluorescence intensity (a.u.)
CCTTAATTTTCAGTGTTAGTAATTTTCATTAACTAATTCTCGGAGTCACCTAGTGCAG | 16200 fluorescence intensity (a.u.)
ATTTAAATGAGATGATTGATGGGGCAATTAGTACTCTAGACGGAGTCACCTAGTGCAG | 38600 fluorescence intensity (a.u.)
GCGCAATTTATTTTGAAATGACTGTAAAATCACAAGTACACGGAGTCACCTAGTGCAG | 7730 fluorescence intensity (a.u.)
CCCTTAATTTGTTTTGTACAATATGAGTGGAAGGGAGTGCCGGAGTCACCTAGTGCAG | 32800 fluorescence intensity (a.u.)
CGAGGAATTGATAAACTGACTTCACTCTCATTATATTTCGCGGAGTCACCTAGTGCAG | 20300 fluorescence intensity (a.u.)
AGTATAATTGAAGTGTAATTACATGTAGCTGCACTATAACCGGAGTCACCTAGTGCAG | 37700 fluorescence intensity (a.u.)
GACTTTAAGATTGAAAACAACACCCCTTGCTACTGCAGTACGGAGTCACCTAGTGCAG | 7450 fluorescence intensity (a.u.)
